# According to ChEMBL document CHEMBL5308541, “MAIP: An Open-Source Tool to Enrich High-Throughput Screening Output and Identify Novel, Druglike Molecules with Antimalarial Activity” (ACS Med Chem Lett, 2023):
# The whole screen tested about 150,000 compounds, of which about 540 (0.36%) showed an effect of 50% or more. Some of the results follow.
# Test system: Plasmodium falciparum
# Assay: Primary screen in NF54 nanoGlo assay, in single point, at 2uM, 72h; a lower Z score goes with more inhibition
# Assay type: functional, Erythrocyte
# Conditions: timepoint 72 hour
Compound,% Inhibition [%],Z score
Cc1cccc2[nH]cc(-c3csc(NCC(F)(F)F)n3)c12,-8,1.32
CS(=O)(=O)Cc1ccc(CNc2ccnc3c(F)ccc(F)c23)cc1,-12,2.08
C[C@@H](CN1CCOCC1)NC(=O)c1cccc(-c2cncc(N(C)C)n2)c1,-10,1.81
Cc1cc(N2CCC(NCc3nc(-c4cnccn4)n[nH]3)CC2)nc(N)n1,-10,1.77
COc1ccccc1NC1CCN([C@@H](C)CN2CCOCC2)CC1,-15,2.62
CCN(CC1=Nc2ccccc2S(=O)(=O)N1)Cc1ccc2[nH]ccc2c1,-10,1.8
CC(C)(C#N)c1ccc(-c2ncnc3[nH]ccc23)cc1,-9,1.47
COC[C@@]1(C(=O)O)CCCN1S(=O)(=O)c1ccccc1C#N,8,-1.33
O=S(=O)(N[C@H](c1cccnc1)c1c[nH]c2ccccc12)c1ccc(Cl)cc1,2,-0.42
CC(CCO)CNc1nc(NCC(C)CCO)c2ccccc2n1 (stereo not given),1,-0.17
CC(C)[C@H](C)NCCCCN1CCN(C)CC1,2,-0.29
CN1CCC(N2CCC(Nc3ncccc3Cl)CC2)CC1,-2,0.3
CN1CCN(C(=O)c2cc(Oc3c(F)c(F)c(F)c(F)c3F)cc(C(=O)N3CCN(C)CC3)c2)CC1,2,-0.41
CC(=O)N1C[C@H](O)C[C@@H]1C(=O)NCc1ccc(Oc2ccc(F)cc2)c(C)c1,5,-1.15
C[C@@H]1CN(Cc2cn(CC3(O)CCOCC3)nn2)C[C@H](C)O1,6,-1.13
O=C(NCc1cccc(-c2cccnc2)c1)N[C@H]1CCN(C2CCCCC2)C1,51,-7.77
CCOc1cc(N2CC[C@H](Oc3ccnc(CN(C)C)c3)C2)ncn1,-2,0.28
CN(C(=O)c1ccc2[nH]ccc2c1)C1CN(c2ccc3nncn3n2)C1,-7,1.18
COc1cc(OC)cc(N2CC[C@H](N(C)Cc3csc(C)n3)C2)c1,1,-0.2
CCOc1cc2nccc(N3C[C@H]4CN(C)C[C@H]4C3)c2cc1OCC,99,-21.22
Cc1ccc(Nc2nc(N3CCN(c4ccccc4Cl)CC3)nc3[nH]nnc23)cc1,-2,0.3
Clc1cccc2c(Nc3cccc(Br)c3)ccnc12,-3,0.39
COc1ccnc(NC2CCN(Cc3cnc4ccc(C)cn34)CC2)n1,2,-0.43
CC[C@@H](COC)n1cnc(-c2ccccc2)c1-c1ccc2onc(C)c2c1,-1,0.13
CCOc1ccc2oc(-c3ccccc3)c(C(=O)N(C)C3CC4CC(=O)N(C)CC4C3)c2c1 (stereo not given),-1,0.24

Compound,% Inhibition [%],Z score
O=C1CC[C@H](NCCCc2nc3cc(Cl)ccc3[nH]2)CCN1Cc1ccccc1,7,-1.09
CCc1cc(=O)n2nc(NC3CCN(CCOc4ccc(F)cc4)CC3)sc2n1,-1,0.16
CO[C@H]1CCN(c2ccc(NC(=O)c3c[nH]c4ccccc34)cc2)C1,-8,1.4
CN(C(=O)Cc1c[nH]c2ncccc12)C1CC2CCC(C1)N2C(=O)OC(C)(C)C (stereo not given),13,-2.27
CCCNc1ccc(C#N)cc1NC(=O)COc1c(C)nn(C)c1C,-15,2.7
CCOc1ccccc1Cn1cc(-c2cnn(Cc3ccccc3OCC)c2)cn1,-9,1.48
c1cnc2ccc(OCc3csc(C4CCCC4)n3)cc2c1,-7,1.46
O=C(C[C@@H]1C[C@H]2O[C@H](CNC3CCNCC3)[C@@H](O)[C@H]2O1)N1CCS(=O)(=O)CC1,-6,0.86
c1ccc(-c2ncn(Cc3ccncn3)c2-c2c[nH]nc2C2CCCCC2)cc1,-5,0.94
Cc1cccc(-c2cc(Nc3cccc(C(=O)NCc4ccc(C(C)C)cc4)c3)ncn2)c1,-13,2.19
CCc1cc(N2CCC(Nc3nc4ccccc4n3C)CC2)ncn1,-12,2.16
CN(Cc1ccccc1)c1nc2nonc2nc1NCCN1CCC[C@H](O)C1,-2,0.29
COc1ccc2c(c1)c(C(=O)C1=CN(C)CCc3c1[nH]c1ccccc31)c(C)n2C,-14,2.41
FC(F)c1nnc2ccc(N3CCC[C@H](c4n[nH]c(C5CCCCC5)n4)C3)nn12,-4,0.68
CC(C)N1CCC(NC(=O)CN2CCC3(CCOCC3)CC2)CC1,-5,1.15
Cc1c(F)cccc1S(=O)(=O)N1CC[S+]([O-])C(C)C1C (stereo not given),-3,0.65
COC(=O)[C@@H](Cc1c[nH]cn1)NC(=O)c1ccc(OC(F)F)cn1,-2,0.39
Cc1cccc2c(-c3ccc(N4CCN(C)CC4)nn3)c[nH]c12,-16,2.75
CC1(C(=O)NC2CCCN(S(C)(=O)=O)C2)CC2CCC1O2 (stereo not given),1,-0.09
c1ccc2c(c1)CNCC1(CCN(CC3CCNCC3)CC1)O2,7,-1.14
C[C@@H](CC(=O)Nc1ccn(CC(=O)N2CCOCC2)n1)c1ccccc1C(F)(F)F,-12,2.43
O=C(NC[C@@H]1CCCN1)c1cccc(-c2cc(F)c(F)cc2O)c1,6,-1.29
Fc1cncc(-c2cnc(NCc3cc(Cl)ccc3OCC3CC3)nc2)c1,-6,0.86
COc1cccc(-c2nc(C(=O)N3CCOCC3(C)C)c(C)[nH]2)c1,-12,1.84
FC(F)(F)c1ccnc(Nc2ccc(NCc3ccccn3)cc2)n1,10,-2.24

Compound,% Inhibition [%],Z score
CCC(C)Oc1cc(C(=O)N2CCC[C@@H]2c2csc(C)n2)ccn1 (stereo not given in full),-7,1
CC(=O)NC(C)(C)c1noc(-c2ccc(F)cc2O)n1,1,-0.16
Cn1cc(-c2ccnc(N[C@H](CO)Cc3ccc(Cl)cc3)n2)cn1,0,-0.02
c1cnc2[nH]cc(CCNc3ncnc4c3CCC4)c2c1,-2,0.43
COc1ccc(-c2nnc(CN[C@H](c3ccc(C4CCCCC4)cc3)C(C)C)o2)cc1,-2,0.37
C[C@@H]1CN(c2ccc(NCc3c[nH]nc3-c3ccc(C(F)(F)F)cc3)cc2)C[C@H](C)O1,-15,3.14
Cc1n[nH]c(C)c1CN1CCc2nc(N)nc(NC3CCCC3)c2CC1,9,-1.67
N#Cc1ccc(OC2CCC(Nc3ncnc(N)c3Cl)CC2)nc1 (stereo not given),-9,1.6
CCc1cnc(N2CCC(N3CCC[C@H](C(=O)N4CCOCC4)C3)CC2)nc1,11,-2.28
CN(Cc1ccc2nccnc2c1)C1CCN(c2ccc(C(=O)N3CCC[C@H](CO)C3)cc2)CC1,-8,1.33
c1cc(CCN2CCN(C3CCC4(CCNCC4)CC3)CC2)ccn1,-2,0.41
CC(C)CN1CCCN(Cc2cccc3[nH]ccc23)CCNC(=O)CC12CCCCC2,-8,1.32
Cc1cc(C(=O)NCC2CCN(C(=O)CN3CCCN(C)CC3)CC2)cc(C)n1,7,-1.31
CCOc1cc(O)ccc1NC(=O)[C@@](O)(CC)c1cccc(Cl)c1,-9,2.03
CN(C)Cc1cccc(CNc2ncnc3c2CCNC3)c1,-6,1.35
COc1ccc(-c2cc(-c3ccccc3O)n([C@@H]3C(=O)Nc4ccc(Br)cc43)n2)cc1,28,-4.9
CN1CCC[C@H](Nc2nc(NC3CC3)nc3c2CCN(CCN)CC3)C1,-7,1.31
Cc1[nH]c(-c2ccccc2)nc1CN(C)CCN1CCCCC1,-9,1.56
O=C(NC[C@H](c1ccccc1)c1c[nH]c2ccccc12)C1CCN(c2ccc3nnnn3n2)CC1,11,-1.73
FC(F)(F)c1cc(N2CCC[C@H]2c2nc3ccccc3[nH]2)nc(-c2ccncc2)n1,-4,0.67
Cc1ccc(CS(=O)(=O)N[C@H]2CCCS(=O)(=O)C2)c(F)c1,-6,1.23
CC1CC(Nc2cc(N3CCOCC3)ncn2)CCN1Cc1ccccc1 (stereo not given),-3,0.5
OC(CNCC(c1ccccc1Cl)c1c[nH]c2ccccc12)COCc1ccc2c(c1)OCO2 (stereo not given),0,-0.04
Cn1nncc1C(=O)Nc1ccc(-c2nc3cc(F)c(F)cc3[nH]2)cc1,4,-0.86
O=C([C@@H](F)CN(Cc1ccccc1)Cc1ccccc1)N1CCn2cnnc2C1,-5,0.79
